{"source": "PubChem BioAssay (Tox21)", "key": {"[1]": {"assay": "qHTS assay to test for compound auto fluorescence at 460 nm (blue) in HEK293 cells (AID 720678); also: potency is read from the fitted curve at half-maximal effect; tags tell the direction and shape of the fitted curve or compound fluorescence and quenching", "conditions": "blue autofluorescence 405/460 nm; series mostly up to 46 µM", "outline": "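Intrinsic compound fluorescence is recorded in live HEK293 cultures after overnight incubation at 37C, 5% CO2, using excitation 405 nm and emission 460 nm. Values are referenced to triamterene.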"}, "[2]": {"assay": "Caspase-3/7 induction in CHO-K1 cells by small molecules, qHTS assay (AID 1346980); also: nearly all actives have a fitted effect of over 15% in size", "conditions": "CHO-K1 caspase-3/7 induction, Caspase-Glo luminescence, 17 h; series mostly up to 92.4 µM", "outline": "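Wild-type cells were seeded at 1,500 per well and settled 5 hr at 37 C, 5% CO2, then exposed to DMSO-dissolved compounds for 17 hr. Caspase-Glo 3/7 reagent was added, and luminescence was read after 30min at room temperature.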"}, "[3]": {"assay": "qHTS assay to identify small molecule agonists of the RXR signaling pathway - cell viability counter screen (AID 1159529); also: potency is read from the fitted curve at half-maximal effect; nearly all actives have a fitted effect of over 50% in size; tags tell the direction and shape of the fitted curve", "conditions": "RXR-alpha-bla HEK293T viability, CellTiter-Glo, 16 h; series mostly up to 76.8 µM", "outline": "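Same-well viability check after the LiveBLAzer FRET read: CellTiter-Glo added, luminescence measured after 30 min at room temperature. Reporter HEK 293T cells had been treated with compounds for 16 hr following a 5 hr preincubation.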"}, "[4]": {"assay": "qHTS assay to identify small molecule agonists of the retinoic acid receptor (RAR) signaling pathway (AID 1159553)", "conditions": "C3RL4 RARE luciferase reporter, agonist, 6 h; activation: at 73.3 µM (top of the series) unless noted", "outline": "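C3RL4 cells carrying a RARE luciferase reporter were plated overnight at 37 C, then exposed to compounds in DMSO for 6 hr at 37 C and 5% CO2. Luminescence was read 30 min after luciferase reagent addition at room temperature.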"}, "[5]": {"assay": "qHTS assay to identify small molecule antagonists of the estrogen related receptor (ERR) signaling pathway from Tox21 library - cell viability counter screen (AID 1224834); also: nearly all actives have a fitted effect of over 30% in size", "conditions": "ERR reporter cells viability, CellTiter-Fluor, 17.5 h; series mostly up to 92.4 µM", "outline": "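ERR reporter cells were plated 6 h before compound addition, then exposed to test compounds in DMSO for 17.5 h at 37 C. Viability was read as CellTiter-Fluor fluorescence after a 30-minute incubation at 37 C.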"}, "[6]": {"biological_target": "Thyrotropin receptor (Homo sapiens) (UniProt P16473)", "sequence (P16473 whole entry, looked up)": "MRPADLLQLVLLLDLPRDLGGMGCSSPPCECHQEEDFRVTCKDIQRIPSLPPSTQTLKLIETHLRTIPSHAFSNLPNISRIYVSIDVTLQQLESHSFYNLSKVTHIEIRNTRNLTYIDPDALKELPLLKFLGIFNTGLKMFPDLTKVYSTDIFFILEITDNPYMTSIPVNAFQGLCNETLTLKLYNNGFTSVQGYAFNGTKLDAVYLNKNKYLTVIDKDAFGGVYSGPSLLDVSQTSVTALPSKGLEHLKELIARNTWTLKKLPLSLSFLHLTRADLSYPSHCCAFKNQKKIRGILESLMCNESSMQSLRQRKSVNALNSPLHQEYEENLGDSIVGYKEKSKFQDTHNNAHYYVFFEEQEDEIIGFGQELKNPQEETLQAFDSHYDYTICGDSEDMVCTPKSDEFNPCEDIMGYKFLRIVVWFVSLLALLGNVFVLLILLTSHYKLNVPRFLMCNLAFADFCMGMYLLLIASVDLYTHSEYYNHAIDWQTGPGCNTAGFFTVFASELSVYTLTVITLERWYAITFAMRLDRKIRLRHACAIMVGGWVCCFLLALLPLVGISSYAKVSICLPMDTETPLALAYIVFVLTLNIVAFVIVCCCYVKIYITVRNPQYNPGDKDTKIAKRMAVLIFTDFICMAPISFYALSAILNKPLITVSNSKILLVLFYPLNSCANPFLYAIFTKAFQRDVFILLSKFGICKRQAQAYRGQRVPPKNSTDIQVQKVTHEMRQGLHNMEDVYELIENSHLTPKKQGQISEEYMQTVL", "assay": "qHTS assay to identify small molecule agonists of the thyroid stimulating hormone receptor (TSHR) signaling pathway (AID 1224843; calls by dose curve; also: nearly all actives have a fitted effect of over 45% in size)", "conditions": "TSHR-HEK293 cells, cAMP HTRF, agonist mode, 30 min; activation: at 92.4 µM (top of the series) unless noted", "outline": "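TSHR-expressing HEK293 cells (800 per well) were exposed to compounds for 30 min at room temperature. cAMP was then detected by HTRF competition with cAMP-d2 and anti-cAMP cryptate, read after 1 h at room temperature. Fifteen concentrations, triplicate.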"}}, "note": "Inconclusive means that the source gave no clear call. Such entries were picked first, then a sample of the others. A call without a number means that no potency is given here. For part of these data: Where the call is inconclusive, the potency comes from a doubtful curve fit. Calls of active or inactive are those of the source. Unless noted, calls follow the shape of the dose curve; as a rule, active = well fitted curve in the direction sought with a large enough effect in the repeat runs; inconclusive = weak or mixed curves; inactive = no such curve, though single readings can be large; an effect the other way counts as inactive or inconclusive."}
{"compound": "CC(=O)Nc1ccn(C2COC(COC(=O)c3ccccc3)O2)c(=O)n1", "note": "(stereo unspecified)", "values": [{"measurement": "Potency", "setting": "[1]", "result": "inconclusive: 5.62 µM [fluorescent, single point]"}]}
{"compound": "C=C(C)C(=O)NCCCN(C)C", "values": [{"measurement": "Potency", "setting": "[2]", "result": "inactive"}]}
{"compound": "COC(=O)[C@@H]1CC2=CC(=O)CC[C@]2(C)[C@@]23O[C@@H]2C[C@@]2(C)[C@@H](CC[C@@]24CCC(=O)O4)[C@H]13", "values": [{"measurement": "Potency", "setting": "[3]", "result": "inconclusive: 0.0006 µM [rising, full curve, poor fit]"}, {"measurement": "Potency", "setting": "[4]", "result": "inactive"}, {"measurement": "Potency", "setting": "[5]", "result": "inactive"}, {"measurement": "Potency", "setting": "[6]", "result": "inactive"}]}
